Reference: the supplement of paper PMC4466236
Over roughly 33,000 sequences, “E-score (dimensionless, -0.5 to 0.5)” has its median near -0.058; the highest 2% begin near 0.35. Some of the results follow.

Each sequence was assayed on MvaT (assay: PBM 8-mer E-score (mean of HK and ME arrays) (E-score (dimensionless, -0.5 to 0.5)); higher = stronger relative binding preference; most listed sequences are background and not binding sites).
How it was run: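 Full-length P. aeruginosa MvaT carrying an N-terminal glutathione S-transferase tag was tested by protein binding microarray following a previously described protocol. Two universal double-stranded 60-mer arrays, ME and HK, were used, each with a constant 25-mer primer region and a variable 35-mer region covering all 8-mers. The rank-based E-score is the mean of the two arrays, parsed with a custom script. Its range runs from -0.5 to 0.5 for each 8-mer.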

| Sequence | PBM 8-mer E-score |
| --- | --- |
| AGCGAGGA | -0.132 |
| GCGCAAAC | 0.0481 |
| GCTGCAAC | -0.0708 |
| ATGTGTTC | 0.0842 |
| AGGGCAAA | 0.00349 |
| CAGGCCCC | -0.325 |
| CCAATATA | 0.367 |
| CATTCCGG | -0.0284 |
| GCCATTAC | -0.0881 |
| AGGGCTTC | -0.321 |
| ATCAAGAT | -0.0668 |
| GGCCGATA | -0.0674 |
| ACCTATCG | -0.108 |
| TTCACGAA | 0.0127 |
| ATGGCTTA | -0.0258 |
| TACTTTAA | 0.422 |
| ACAAGGGG | -0.104 |
| AAGCTAGG | -0.267 |
| CCCCAGTC | -0.137 |
| CAGCAATA | 0.25 |
| GCTATAGC | -0.0328 |
| AATAAGCT | 0.231 |
| ACCACCAT | -0.0102 |
| GCTTGTTA | 0.126 |

| Sequence | PBM 8-mer E-score |
| --- | --- |
| GCCCTTTA | -0.0688 |
| CGTCTTGC | -0.0702 |
| GATTTAAA | 0.395 |
| AGGGGATG | -0.294 |
| AAGTAGGC | 0.0924 |
| AGATGCCG | -0.239 |
| ACGATGGA | -0.117 |
| GACTAGCC | -0.141 |
| ACCGCGAG | -0.279 |
| TTAGTAAA | 0.216 |
| CGGAACCA | -0.158 |
| CGGCCCAA | -0.186 |
| ATTGATGA | 0.0305 |
| CATCTTAC | 0.0767 |
| ACAACTAT | 0.336 |
| CCCATGCA | -0.23 |
| TCTATAAA | 0.103 |
| CGGATATC | 0.00792 |
| ATAGTCGA | 0.152 |
| ACACTAGA | -0.0048 |
| AGCATAGG | -0.000532 |
| CTAAGTTA | 0.352 |
| AAGATCAT | 0.11 |
| CCTCTGAC | -0.327 |

| Sequence | PBM 8-mer E-score |
| --- | --- |
| CGAGCCAC | -0.175 |
| CAACAACC | 0.0804 |
| CGCGCAAG | 0.0254 |
| TCCTCAGA | -0.142 |
| ACATTTTG | 0.0944 |
| ACGGTGTG | -0.0988 |
| CCGAATAA | 0.188 |
| CCACAAAG | -0.0754 |
| ACCCACAT | 0.105 |
| GTACGCTA | -0.0281 |
| ACAGAAGA | 0.0811 |
| AGAATCCG | -0.0107 |
| AATCTTCT | 0.138 |
| TCGGGAGA | -0.176 |
| CAAGGAGG | -0.322 |
| CTGTCTTA | 0.224 |
| AGACACGG | -0.115 |
| CGACTAGC | -0.196 |
| ATGCCCCA | -0.194 |
| AGCCGAGA | -0.121 |
| GGCACCCC | -0.349 |
| AACATCTG | 0.0268 |
| CTGTGACA | -0.106 |
| ATAGACGC | 0.122 |

| Sequence | PBM 8-mer E-score |
| --- | --- |
| CCGCTGCA | -0.0655 |
| ATCAGGAA | 0.112 |
| CTGCGAAG | -0.175 |
| AACAGAGC | 0.00269 |
| GGACTGCC | -0.302 |
| ATTAGCAC | 0.0511 |
| CTACCCCC | -0.195 |
| GAGCCGCA | -0.38 |
| CCGACCGA | -0.228 |
| TCGCGGAA | 0.0201 |
| GAATCTGC | -0.188 |
| GGACTATA | 0.155 |
| AGGTACCG | -0.0332 |
| CGAATTGC | 0.0872 |
| GAGCTTGC | -0.211 |
| ACAATTGG | 0.189 |
| AACATTTC | 0.231 |
| GACGTGGA | -0.112 |
| AAGTAGCC | -0.0547 |
| AGAGAGAC | -0.208 |
| GCGAATTA | 0.194 |
| GGTAATCA | 0.116 |
